# Measurements published in the supplement of paper PMC4723716.
# ± gives the uncertainty stated by the source. Whole data set: some 9,900 compounds, median “viability index relative to DMSO control” near 1, cut for the lowest 2% near 0.85. Some of the results follow.
# Test system: Plasmodium falciparum NF54 stage V gametocytes
# Assay: viability index relative to DMSO control (fraction); higher = less gametocyte killing
# Conditions: 2.5 µM, library set: Broad Institute DOS, incubation time: 72 h
# How it was run: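 P. falciparum NF54 stage V gametocytes in serum-free screening medium (0.75% gametocytemia, 1.25% hematocrit, 10 µl) were incubated with compound at 2.5 µM in 1,536-well plates for 72 hr at 37°C under low oxygen. Then 3 µl of 2.5 µM MitoTracker Red CMXRos plus 0.13% saponin was added for one to two hours. One field per well was imaged, 20–70 µm2 red particles were counted, and the viability index was the count divided by the plate mean of DMSO wells.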
row,Compound,viability index
1,COc1ccc2c3c([nH]c2c1)[C@@H](CO)N(C[C@]31CN(C1)C(=O)C1CCC1)C(=O)c1ccccn1,1.07 ± 0.14
2,CS(=O)(=O)N1CC(=O)N2[C@@H](CO)[C@@H](c3ccc(C#CCC4CCCC4)cc3)[C@@H]2C1,0.9829 ± 0.0019
3,C[C@@H]1CN([C@H](C)CO)C(=O)Cc2cc(NC(=O)CCN3CCOCC3)ccc2O[C@H]1CN(C)Cc1ccc(C(=O)O)cc1,1.07 ± 0.035
4,C[C@@H]1CN([C@@H](C)CO)C(=O)CCCn2cc(nn2)CO[C@H]1CN(C)C(=O)c1ccc(N2CCN(C)CC2)cc1,1.04 ± 0.035
5,C/C=C/c1ccc([C@@H]2[C@@H](CO)N3C(=O)CN(C(=O)Nc4cccc(OC)c4)C[C@@H]23)cc1,1.051 ± 0.008
6,COc1cccc(CNC(=O)C[C@H]2CC[C@@H]3[C@H](COc4ccc(NC(=O)c5cccs5)cc4C(=O)N3C)O2)c1,0.935 ± 0.15
7,COc1ccc(-c2ccccc2[C@H]2[C@@H](CO)N(C(=O)NC(C)C)[C@H]2C#N)cc1,1.13 ± 0.14
8,CN(C)C(=O)c1ccc(-c2ccc([C@@H]3[C@H]4CN(C(=O)CC5CC5)CC(=O)N4[C@H]3CO)cc2)cc1,1.08 ± 0.018
9,COc1ccc(C#Cc2ccc3c(c2)[C@H]2[C@H](CCN2C(=O)Nc2ccc(C(F)(F)F)cc2)[C@H](CO)N3C)cc1,1.1 ± 0.068
10,N#C[C@H]1[C@H](c2ccc(C3=CCCC3)cc2)[C@@H](CO)N1C(=O)c1ccccn1,1.06 ± 0.052
11,CO[C@@H]1CC[C@H]2CCOc3c(C#N)cccc3C(=O)N(C)CC3(CCCCC3)CC(=O)N(C)C[C@H]1O2,0.974 ± 0.043
12,CC[C@H]1C/C=C\C[C@@H](c2ccc(OC)cc2OC)NC(=O)[C@@H](C)CC(=O)N1,0.956 ± 0.047
13,CO[C@@H](CN(C)Cc1ccc2c(c1)OCO2)[C@H](C)CN(C(=O)c1ccccc1)[C@@H](C)CO,1.02 ± 0.12
14,O=C(c1ccncc1)N1C[C@@H]2[C@H](c3ccccc31)[C@H](CO)N2Cc1ccccc1F,1.055 ± 0.0046
15,C[C@H](CO)N1C[C@H](C)[C@@H](CN(C)C(=O)[C@H](Cc2ccccc2)N(C)C)OCc2ccccc2-c2ccccc2C1=O,1.05 ± 0.028
16,COC(=O)c1ccc(CN2CC(=O)N3[C@H](CO)[C@H](c4ccc(-c5cccnc5)cc4)[C@@H]3C2)cc1,1.05 ± 0.043
17,C[C@@H](NC(=O)C[C@H]1C=C[C@H](NS(=O)(=O)c2cccc(F)c2)[C@H](CO)O1)c1ccccc1,1.12 ± 0.098
18,CO[C@@H](CN(C)CC1CCOCC1)[C@@H](C)CN(C(=O)Nc1ccc(F)cc1)[C@@H](C)CO,1.03 ± 0.079
19,CC(=O)N1[C@@H](CO)[C@@H](c2ccc(-c3ccc(C#N)cc3)cc2)C12CN(C(=O)C1CC1)C2,1.09 ± 0.02
20,COc1ccc2c3c([C@@H](CO)N(C[C@]33CCN(Cc4cncnc4)CC3)C(=O)CN(C)C)n(C)c2c1,0.999 ± 0.035
